Measured values as given in publication PMC6919601, “Identification of Plasmodium dipeptidyl aminopeptidase allosteric inhibitors by high throughput screening” (PLoS ONE, 2019).
Hit rate of the full screen: of about 110,000 compounds, about 230 (0.21%) showed an effect of 50% or more. This is one part of the list.

Each compound was assayed against DPAP1 (Plasmodium falciparum, UniProt Q8IIJ9) (assay: primary screen, percent inhibition; read by cleavage of a fluorogenic dipeptide substrate; higher = more effect of the substance).
Chain of DPAP1 (Q8IIJ9 whole entry, looked up): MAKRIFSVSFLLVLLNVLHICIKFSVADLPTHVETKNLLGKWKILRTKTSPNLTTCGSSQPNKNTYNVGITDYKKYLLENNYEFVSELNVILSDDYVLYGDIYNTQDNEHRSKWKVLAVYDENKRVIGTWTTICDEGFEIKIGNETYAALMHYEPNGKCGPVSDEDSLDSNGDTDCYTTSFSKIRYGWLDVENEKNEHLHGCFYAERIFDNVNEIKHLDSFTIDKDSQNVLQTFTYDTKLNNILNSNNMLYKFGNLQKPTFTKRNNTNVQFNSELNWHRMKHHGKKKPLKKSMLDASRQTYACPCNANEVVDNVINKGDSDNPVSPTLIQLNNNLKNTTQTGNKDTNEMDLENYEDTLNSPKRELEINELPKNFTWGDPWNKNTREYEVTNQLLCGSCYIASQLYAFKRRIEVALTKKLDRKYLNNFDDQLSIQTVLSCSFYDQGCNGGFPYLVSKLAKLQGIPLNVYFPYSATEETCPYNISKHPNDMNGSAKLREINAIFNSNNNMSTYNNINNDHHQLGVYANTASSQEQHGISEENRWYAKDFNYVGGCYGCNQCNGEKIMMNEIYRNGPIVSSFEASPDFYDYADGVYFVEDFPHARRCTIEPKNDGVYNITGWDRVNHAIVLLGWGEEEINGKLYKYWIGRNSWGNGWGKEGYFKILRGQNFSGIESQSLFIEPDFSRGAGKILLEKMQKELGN
Set-up: species or system P. falciparum D10 trophozoite lysates; single well
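Further: 30 min substrate incubation versus DMSO and 10 µM JCP410 controls.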

Compound	% Inhibition @ 10 uM
Cc1c(Cl)cccc1NS(=O)(=O)c1ccc2ccccc2c1	3.53%
CSC1=NSC2=NC(=O)/C(=C\c3ccc(-c4ccccc4)o3)C(=N)N12	-19.8%
Cc1ccc(NC(=O)Cc2ccccc2F)cc1O	-0.884%
O=C1NC(=O)N(c2ccccc2)C(=O)/C1=C\Nc1ccccn1	4.08%
COc1cccc(/C=c2\sc3nnc(-c4ccc(C)cc4)n3c2=O)c1	-3.14%
CN1CCN(C(=O)C(C(=O)N2CCN(C)CC2)C23CC4CC(CC(C4)C2)C3)CC1	-0.736%
CCOC(=O)c1ccc(CNCc2ccc(Br)cc2)cc1	4.61%
O=C(NCCCN1CCN(C2CCCCC2)CC1)c1csc2c1CCCCC2	0.277%
Cc1nc(N2CCCC2)ncc1C(=O)O	2.25%
C=CCOC(=O)C1=C(C)N=C(S)NC1c1ccccc1OCC (centres unmarked)	-4.77%
NS(=O)(=O)c1cnccc1NCCc1ccccc1	0.843%
C=CCOc1cccc(CNc2cccc(C(=O)O)c2)c1	0.907%
COc1ccc(C(C)C)cc1S(=O)(=O)NCc1ccccn1	5.17%
N#Cc1c(NC(=O)c2ccco2)sc2c1CCCC2	-3.46%
COc1cccc(-c2cc(-c3ccc(C)o3)c(C#N)c(N)n2)c1	-3.13%
CN(C)c1ccc(/C=C2\NC(=O)NC2=O)cc1	-4.01%
CC1CCCN(S(=O)(=O)c2ccc(S(=O)(=O)N3CCN(c4ncccn4)CC3)cc2)C1 (centres unmarked)	-2.92%
CC(C)N(Cc1nc(-c2ccccc2)no1)C(=O)CSc1ccccc1	-4.62%
CN(C)CC(Oc1ccc(Cl)cc1)C(=O)O (centres unmarked)	-4.26%
Cc1sc2ncn(Cc3c(F)cccc3Cl)c(=O)c2c1C	5.59%
Cc1ccc(C)c(N(CC(=O)Nc2ccc3c(c2)OCO3)S(=O)(=O)c2ccccc2)c1	-3.04%
COc1ccc(C(CC(=O)O)NC(=O)CSc2nc3ccccc3o2)cc1 (centres unmarked)	0.9%
c1ccc2cc(OCCCN3CCCCC3)ccc2c1	-0.351%
Cc1cccc(NC(=O)c2cc3ccccc3o2)c1C	-2.14%
O=C(NCc1cccnc1)C1c2ccccc2C(=O)N1Cc1ccc(F)cc1Cl (centres unmarked)	3.5%

Compound	% Inhibition @ 10 uM
O=C1OC(c2ccccc2)=N/C1=C/c1ccc(-c2ccc(Cl)c(C(=O)O)c2)o1	44.9%
COc1ccc(C2C(C(=O)c3ccc(Cl)cc3)=C(O)C(=O)N2CCO)c(OC)c1 (centres unmarked)	1.17%
Cc1cccc(N2/C(=N/C(=O)c3ccccc3)SC3CS(=O)(=O)CC32)c1 (centres unmarked)	-6.67%
CNC(=O)c1nnc(Cc2ccc(OC)c(OC)c2)o1	1.94%
CC(C)NC(=O)c1ccc(COCC(F)(F)C(F)F)cc1	2.54%
CCn1c(SCC(=O)Nc2ccc3sc(C)nc3c2)nc2ccccc2c1=O	-2.82%
Cc1nn2nnnc2nc1O	-3.23%
CCn1c2c(c(C)cc1=O)C(=O)CC(C)(C)C2	-2.85%
COc1ccc(CNc2nc(-c3ccccc3)nn2C(=O)c2ccc(OC)c(OC)c2)cc1	0.628%
O=C1CC(c2ccc(Cl)cc2)N2CCCNC2=C1C(=O)Nc1cccc2ccccc12 (centres unmarked)	-2.45%
O=C(CCc1nc2cccnc2n1-c1ccccc1)N1CCc2ccccc2C1	-2.88%
O=C(Nc1ccncc1)C1CCC(CNS(=O)(=O)c2cccc3nsnc23)CC1 (centres unmarked)	-2.25%
CCOc1ccccc1CNC(=O)C1CCN(c2ncnc3c2nc2n3CCCCC2)CC1	5.05%
COc1ccc(S(=O)(=O)N(CC(=O)Nc2ccc3c(c2)OCO3)c2cc(C)cc(C)c2)cc1OC	3.09%
COc1cc(CN(C(=O)c2ccco2)C2CCS(=O)(=O)C2)cc(OC)c1OC (centres unmarked)	-1.47%
O=C(NCCCCNC(=O)C12CC3CC(CC(C3)C1)C2)C12CC3CC(CC(C3)C1)C2	-7.01%
O=C(CCN1C(=O)c2ccccc2C1=O)NCCc1nc2ccccc2[nH]1	-5.51%
Cc1nn(-c2ccccc2)c2c1C(c1cccc(O)c1)C(C#N)=C(N)O2 (centres unmarked)	0.774%
COc1ccc(Cc2nn3c(-c4ccccc4Br)nnc3s2)cc1	-0.45%
CC(C)(C)c1cc(O)c2oc(=O)c(S(=O)(=O)c3ccccc3)cc2c1	-3.1%
COc1cccc(C(=O)N2CCN(C(=O)c3ccco3)CC2)c1	-4.7%
CCOC(=O)C1CCN(Cc2ccccc2OC)CC1	-1.86%
N#CC(C(N)=O)c1ccc2ccccc2c1 (centres unmarked)	3.8%
Cc1cccc2c1-c1sc(C(=O)Nc3cccnc3Cl)cc1CO2	0.291%
CC(=O)NCCNc1nc2c(-c3cccc(C(F)(F)F)c3)nnn2c2ccccc12	0.44%
